Measured values published in a collection of fitness landscapes (doi:10.1126/science.1257360).
The other results are listed elsewhere or left out.

B1: PhoQ; a variant is named by its letters at X, in order, P23837 (parent)
chain: MKKLLRLFFPLSLRVRFLLATAAVVLVLSLAYGMVALIGYSVSFDKTTFRLLRGESNLFYTLAKWENNKLHVELPENIDKQSPTMTLIYDENGQLLWAQRDVPWLMKMIQPDWLKSNGFHEIEADVNDTSLLLSGDHSIQQQLQEVREDDDDAEMTHSVAVNVYPATSRMPKLTIVVVDTIPVELKSSYMVWSWFIYVLSANLLLVIPLLWVAAWWSLRPIEALAKEVRELEEHNRELLNPATTRELTSLVRNLNRLLKSERERYDKYRTTLTDLTHSLKTPLXXLQXXLRSLRSEKMSVSDAEPVMLEQISRISQQIGYYLHRASMRGGTLLSRELHPVAPLLDNLTSALNKVYQRKGVNISLDISPEISFVGEQNDFVEVMGNVLDNACKYCLEFVEISARQTDEHLYIVVEDDGPGIPLSKREVIFDRGQRVDTLRPGQGVGLAVAREITEQYEGKIVAGESMLGGARMEVIFGRQHSAPKDE

Variants of: B1
Experiment: enrichment ratio after two sorts for PhoP signalling (ratio (wild type AVST 3.29)); higher = more functional
Conditions: with PhoP (E. coli)
SFHQ was tested, and the enrichment ratio was no more than 0.25. Variant APMR has an enrichment ratio of no more than 0.25. In the case of MPHA, the enrichment ratio is reported as no more than 0.25. TMLT showed an enrichment ratio of 1.84. SIPW was tested, and the enrichment ratio was no more than 0.25. In the case of QEYG, the enrichment ratio is reported as 9.59. TIHT was tested, and the enrichment ratio was no more than 0.25. KRMT was tested, and the enrichment ratio was no more than 0.25. FSEL showed an enrichment ratio of no more than 0.25. With DCQH the enrichment ratio was no more than 0.25. MVRL was tested, and the enrichment ratio was no more than 0.25. Variant QRNK has an enrichment ratio of no more than 0.25. With MNYE the enrichment ratio was no more than 0.25. Work on FITS yielded an enrichment ratio of no more than 0.25. Variant GCPY has an enrichment ratio of no more than 0.25. In the case of WYMW, the enrichment ratio is reported as no more than 0.25. In the case of QVDI, the enrichment ratio is reported as no more than 0.25. With VYIE the enrichment ratio was no more than 0.25. Work on ASFC yielded an enrichment ratio of no more than 0.25. Variant HLPE has an enrichment ratio of no more than 0.25. With EHSK the enrichment ratio was no more than 0.25. Variant WYQG has an enrichment ratio of no more than 0.25. With HFWV the enrichment ratio was no more than 0.25. Work on KARE yielded an enrichment ratio of no more than 0.25. Variant NIPV has an enrichment ratio of no more than 0.25. PNKQ showed an enrichment ratio of no more than 0.25. RCQP showed an enrichment ratio of no more than 0.25. For MSMM, the enrichment ratio was 11. Variant EELL has an enrichment ratio of no more than 0.25. GWSC was tested, and the enrichment ratio was no more than 0.25. CSAS was tested, and the enrichment ratio was 36.6. With LKHK the enrichment ratio was no more than 0.25. VYPQ gave an enrichment ratio of no more than 0.25. Variant FKHQ has an enrichment ratio of no more than 0.25. With MLYM the enrichment ratio was 8.36. Work on MGYE yielded an enrichment ratio of no more than 0.25. In the case of EELI, the enrichment ratio is reported as no more than 0.25. Work on DVFF yielded an enrichment ratio of no more than 0.25. YNAF showed an enrichment ratio of no more than 0.25. Variant QYAH has an enrichment ratio of no more than 0.25. PPWW was tested, and the enrichment ratio was no more than 0.25. Work on NHEA yielded an enrichment ratio of no more than 0.25. HAYQ was tested, and the enrichment ratio was no more than 0.25. Work on ELDE yielded an enrichment ratio of no more than 0.25. In the case of PTDA, the enrichment ratio is reported as no more than 0.25. With HNKF the enrichment ratio was no more than 0.25. Work on HMQS yielded an enrichment ratio of no more than 0.25. With SENL the enrichment ratio was no more than 0.25. For PTVR, the enrichment ratio was no more than 0.25. TNML was tested, and the enrichment ratio was 1.41. In the case of PFHR, the enrichment ratio is reported as no more than 0.25. With HKMV the enrichment ratio was no more than 0.25. PEVE showed an enrichment ratio of no more than 0.25. In the case of VAFE, the enrichment ratio is reported as no more than 0.25. Work on GNRE yielded an enrichment ratio of no more than 0.25. APIL gave an enrichment ratio of no more than 0.25. Work on LDMY yielded an enrichment ratio of 1.27. FEIV was tested, and the enrichment ratio was no more than 0.25. QEFV showed an enrichment ratio of 1.89. FTMP gave an enrichment ratio of no more than 0.25. Variant IICW has an enrichment ratio of no more than 0.25. LHVM showed an enrichment ratio of no more than 0.25. IEKI was tested, and the enrichment ratio was no more than 0.25. In the case of APWE, the enrichment ratio is reported as no more than 0.25. HQNS showed an enrichment ratio of no more than 0.25. For YWFE, the enrichment ratio was no more than 0.25. Variant GQMT has an enrichment ratio of no more than 0.25. In the case of PQQN, the enrichment ratio is reported as no more than 0.25. With TGQF the enrichment ratio was 3.99. For WTVR, the enrichment ratio was no more than 0.25. With EQLT the enrichment ratio was no more than 0.25. With MTFD the enrichment ratio was no more than 0.25. VGMD was tested, and the enrichment ratio was no more than 0.25. With STEM the enrichment ratio was no more than 0.25. IRTL gave an enrichment ratio of no more than 0.25. HHVD was tested, and the enrichment ratio was no more than 0.25. For LYGN, the enrichment ratio was no more than 0.25. VNQT showed an enrichment ratio of no more than 0.25. In the case of EPPH, the enrichment ratio is reported as no more than 0.25. KGTH was tested, and the enrichment ratio was 0.909. TVTE showed an enrichment ratio of no more than 0.25. IRNM gave an enrichment ratio of no more than 0.25. Variant TYTQ has an enrichment ratio of no more than 0.25. YIYF was tested, and the enrichment ratio was no more than 0.25. With ICGW the enrichment ratio was no more than 0.25. In the case of EHNF, the enrichment ratio is reported as no more than 0.25. With YPQN the enrichment ratio was no more than 0.25. TPRM showed an enrichment ratio of no more than 0.25. Work on IQRW yielded an enrichment ratio of no more than 0.25. Variant FKFA has an enrichment ratio of no more than 0.25. LKWI gave an enrichment ratio of no more than 0.25. In the case of WHSA, the enrichment ratio is reported as no more than 0.25. With SMVM the enrichment ratio was 9.46. In the case of SWHH, the enrichment ratio is reported as no more than 0.25. AIVK showed an enrichment ratio of no more than 0.25. Variant WEWT has an enrichment ratio of no more than 0.25. LTTN showed an enrichment ratio of no more than 0.25. In the case of HADM, the enrichment ratio is reported as no more than 0.25. Work on RYTM yielded an enrichment ratio of no more than 0.25. EQQN gave an enrichment ratio of no more than 0.25. FIIL was tested, and the enrichment ratio was no more than 0.25. Variant PQLL has an enrichment ratio of no more than 0.25. TCHR was tested, and the enrichment ratio was no more than 0.25. In the case of HRKQ, the enrichment ratio is reported as no more than 0.25. EICQ gave an enrichment ratio of no more than 0.25. RADM was tested, and the enrichment ratio was no more than 0.25. Variant DDNQ has an enrichment ratio of no more than 0.25. Work on DQTP yielded an enrichment ratio of no more than 0.25. In the case of YSIR, the enrichment ratio is reported as no more than 0.25. EAEH was tested, and the enrichment ratio was no more than 0.25. YDQK showed an enrichment ratio of no more than 0.25. SPME gave an enrichment ratio of no more than 0.25. Variant INMA has an enrichment ratio of no more than 0.25. AFGY showed an enrichment ratio of no more than 0.25. With FAHI the enrichment ratio was no more than 0.25. Work on HRHR yielded an enrichment ratio of no more than 0.25. In the case of KDNM, the enrichment ratio is reported as no more than 0.25. Work on PLPC yielded an enrichment ratio of no more than 0.25. TLNT was tested, and the enrichment ratio was 1.35. With IEYS the enrichment ratio was no more than 0.25. With MQFK the enrichment ratio was no more than 0.25. Work on GQVM yielded an enrichment ratio of 10.8. PDAP was tested, and the enrichment ratio was no more than 0.25. Work on DLKC yielded an enrichment ratio of no more than 0.25. Work on HFIL yielded an enrichment ratio of no more than 0.25. With IRAG the enrichment ratio was no more than 0.25. Variant KLKF has an enrichment ratio of no more than 0.25. For MAFA, the enrichment ratio was no more than 0.25. For WSYD, the enrichment ratio was no more than 0.25. Work on TGIP yielded an enrichment ratio of no more than 0.25. DVWF showed an enrichment ratio of no more than 0.25. GDDF was tested, and the enrichment ratio was no more than 0.25. YKFN showed an enrichment ratio of no more than 0.25. Work on QQGF yielded an enrichment ratio of no more than 0.25. GCFN gave an enrichment ratio of no more than 0.25. GKKA was tested, and the enrichment ratio was no more than 0.25. For NLHL, the enrichment ratio was no more than 0.25. YWPR was tested, and the enrichment ratio was no more than 0.25. In the case of MHNM, the enrichment ratio is reported as no more than 0.25. ATNA showed an enrichment ratio of no more than 0.25. Variant LQKS has an enrichment ratio of no more than 0.25. VHSW was tested, and the enrichment ratio was no more than 0.25. In the case of AWRF, the enrichment ratio is reported as no more than 0.25. DILD showed an enrichment ratio of no more than 0.25. NKDS gave an enrichment ratio of no more than 0.25. KHHC gave an enrichment ratio of no more than 0.25. In the case of QMYC, the enrichment ratio is reported as no more than 0.25. AVYW showed an enrichment ratio of no more than 0.25. QNLP showed an enrichment ratio of no more than 0.25. LVIA showed an enrichment ratio of no more than 0.25. Variant MEIL has an enrichment ratio of 5.36. Variant DGGC has an enrichment ratio of no more than 0.25. Work on WVMC yielded an enrichment ratio of no more than 0.25. With RDDP the enrichment ratio was no more than 0.25. For SYYV, the enrichment ratio was no more than 0.25. With LRIG the enrichment ratio was no more than 0.25. Work on SNAV yielded an enrichment ratio of 12.6. Work on YFED yielded an enrichment ratio of no more than 0.25. Variant WGRT has an enrichment ratio of no more than 0.25. FWHA showed an enrichment ratio of no more than 0.25. For LHGK, the enrichment ratio was no more than 0.25. KKDQ was tested, and the enrichment ratio was no more than 0.25. NESS was tested, and the enrichment ratio was no more than 0.25. EATT gave an enrichment ratio of no more than 0.25. For ANCA, the enrichment ratio was 44.6. With YSKG the enrichment ratio was no more than 0.25. Work on GMTP yielded an enrichment ratio of no more than 0.25. Work on KYWK yielded an enrichment ratio of no more than 0.25. With VPRF the enrichment ratio was no more than 0.25. With TDHV the enrichment ratio was no more than 0.25. DLII gave an enrichment ratio of no more than 0.25. With QICN the enrichment ratio was no more than 0.25. With YHWA the enrichment ratio was no more than 0.25. VAWE showed an enrichment ratio of no more than 0.25. KGEP gave an enrichment ratio of no more than 0.25. DFFI showed an enrichment ratio of no more than 0.25. ANFM was tested, and the enrichment ratio was no more than 0.25. YPDC gave an enrichment ratio of no more than 0.25. Variant ISPK has an enrichment ratio of no more than 0.25. With FGKR the enrichment ratio was no more than 0.25. For PELA, the enrichment ratio was no more than 0.25. Variant WACG has an enrichment ratio of no more than 0.25. For IIIA, the enrichment ratio was no more than 0.25. With HKRP the enrichment ratio was no more than 0.25. Variant GWDT has an enrichment ratio of no more than 0.25. WSGC gave an enrichment ratio of no more than 0.25. DAVS gave an enrichment ratio of no more than 0.25. In the case of LHER, the enrichment ratio is reported as no more than 0.25. TMRQ was tested, and the enrichment ratio was no more than 0.25. EHIF showed an enrichment ratio of no more than 0.25. FALA showed an enrichment ratio of 5.9. With HISN the enrichment ratio was no more than 0.25. In the case of APHY, the enrichment ratio is reported as no more than 0.25. GKSH gave an enrichment ratio of no more than 0.25. With HWLG the enrichment ratio was no more than 0.25.
